Reference: PubChem BioAssay AID686971 (National Center for Advancing Translational Sciences (NCATS), 2013)
Among all 360,000 compounds or so, about 7,500 (2.1%) were called active. Inconclusive results, whose numbers are uncertain, are shown with a selection of clear calls. Calls follow the shape of the dose curve; as a rule, active = well fitted cell-killing curve with a large enough effect; inconclusive = small, poorly fitted or top-dose-only effect, or effect the other way, or another doubt; inactive = no such curve, though single readings can be large or run the other way. Potencies of inconclusive entries are left out as doubtful fits.

assay: qHTS for induction of synthetic lethality in tumor cells producing 2HG: qHTS for the HT-1080-IDH1KD cell line; settings: HT-1080 IDH1 knockdown viability, ATP luminescence, 48 h; activity, negative = toxicity: at 46.1 µM (top of the series) unless noted;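 as to activity, negative = toxicity: 0% = DMSO wells and -100% = cell-free medium wells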
Outline: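 CellTiter-Glo luminescence after 48 h compound exposure at 37 degrees C of IDH1-knockdown HT-1080 cells in 5% FBS RPMI. %Activity scaled between DMSO wells and cell-free media wells, with curves fitted and assigned curve classes.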
Potency is read from the fitted curve at half-maximal effect; tags tell the direction and shape of the fitted curve.

SMILES | activity, negative = toxicity | Potency
Cc1cc(-c2nnnn2-c2ccc(F)cc2)no1 | inactive: -4.12% | 
CC(C)OC(=O)C1C(=O)CC(C)(O)C(C(=O)OC(C)C)C1c1ccc(F)cc1 (stereo unspecified) |  | inconclusive [cytotoxic, single point]
CC(/C=C/c1ccco1)=N\NC(=O)c1cccc(Cl)c1 |  | inconclusive [cytotoxic, single point]
CCOc1ccc(NC(=O)c2ccc3c(c2)S(=O)(=O)N=C2CCCCCN23)cc1 | inactive: -1.28% | 
COc1ccc(NC2=CC(=O)CC(C)(C)C2)cc1OC | inconclusive: 39.8% | 
CC1(C)CC2CC(C)(CN2C(=O)COC(=O)c2ccccc2C(F)(F)F)C1 (stereo unspecified) | inactive: -15.1% | 
Cc1ccc2nc(-c3ccc(NC(=O)Cc4cccs4)cc3)[nH]c2c1 |  | inconclusive [cytotoxic, partial curve, poor fit]
O=C(CC1c2cc(F)ccc2C=C(c2ccsc2)N1c1ccc(C#CCCO)cc1)c1ccco1 (stereo unspecified) |  | inconclusive [cytotoxic, single point]
CC(C)N=C1CCCC1C(=S)SSC(=S)C1CCCC1=NC(C)C (stereo unspecified) |  | inconclusive [cytotoxic, single point]
C/C(=N\NC(=O)C12CCC(C)(C(=O)O1)C2(C)C)c1ccccc1O (stereo unspecified) |  | inconclusive [cytotoxic, partial curve]
O=C(N/N=C/c1cccs1)c1cc(C2CC2)nc2ccccc12 |  | inconclusive [cytotoxic, full curve]
Cc1nc2ccc(Br)cn2c1C(=O)N/N=C\c1ccccc1[N+](=O)[O-] | inconclusive: -21.1% [cytotoxic] | 
C#Cc1ccc(NC(=O)C2(C)CCN2C(=O)Cc2ccc(C(C)(C)C)cc2)cc1 (stereo unspecified) |  | active: 10.3 µM
CCOc1ccc(-c2nnn(CC(=O)Nc3cc(OC)cc(OC)c3)n2)cc1OCC |  | inconclusive [cytotoxic, single point]
CCc1ccc(NC(=O)Cn2cc([N+](=O)[O-])nc2C)cc1 | inactive: -21.3% | 
CCC(C)N(CC(=O)Nc1cccc(C)c1C)C(=O)CCl (stereo unspecified) |  | active: 1.03 µM
COc1ccc(OCCOC(=O)C(C)NS(=O)(=O)c2ccc(NC(C)=O)cc2)cc1 (stereo unspecified) |  | inconclusive [cytotoxic, single point]
COc1cc(Br)cc(/C=C/c2ccc3cccc(O)c3n2)c1O |  | inconclusive [cytotoxic, single point]
Cc1cc(-n2c(SCc3ccccc3F)nc3n[nH]c(C)c3c2=N)ccc1Cl |  | active: 20.6 µM
CC(=O)N1N=C(c2cccc(Cl)c2)OC1c1cccc([N+](=O)[O-])c1 (stereo unspecified) | inconclusive: -32.8% [cytotoxic] | 
O=C(O)CN1C(=O)/C(=C\c2cc(Br)ccc2OCc2ccc(Cl)cc2Cl)SC1=S |  | inconclusive [cytotoxic, single point]
O=C(CN(c1ccccc1F)S(=O)(=O)c1ccccc1)NC1CCCCCC1 |  | inconclusive [cytotoxic, single point]
COc1cc(S(=O)(=O)Nc2ccc3nc(C)sc3c2)ccc1NC(C)=O |  | inconclusive [cytotoxic, partial curve, poor fit]
Cc1cc(Br)ccc1OCCNCc1ccccc1 |  | inconclusive [cytotoxic, single point]

SMILES | activity, negative = toxicity | Potency
O=[N+]([O-])c1ccc(NC(=S)NCCc2ccc(F)cc2)cc1 |  | active: 23.1 µM
CCc1ccc(CN2CCC(C(=O)Nc3ccc(Oc4ccccc4)nc3)CC2)o1 |  | inconclusive [cytotoxic, single point]
Cc1cc(O)c(C)c(O)c1/C=N/NC(=O)c1cccnc1 |  | inconclusive [cytotoxic, full curve]
O=C(O)c1cc2c(cc1NC(=O)C1CCCC1)OCCO2 | inactive: 7.09% | 
CCCN1C2CCCC1CC(NC(=O)Nc1cccc(C(C)=O)c1)C2 (stereo unspecified) | inactive: 12.2% | 
Cc1ccccc1NCC(=O)c1ccc(Br)cc1 |  | inconclusive [cytotoxic, single point]
C/C(Cc1nnn(-c2cc(C)on2)n1)=N\O | inactive: 17% | 
O=C(CNC(=O)c1ccccc1)N/N=C/c1ccc([N+](=O)[O-])s1 | inactive: -3.51% | 
CC1(Oc2cccc(Cl)c2)CCN(Cc2ccc(OC(F)(F)F)cc2)C1 (stereo unspecified) | inactive: 14% | 
COc1cc(C(=O)Nc2scc(-c3ccc(Br)cc3)c2C(=O)O)cc(OC)c1OC | inactive: 7.34% | 
COc1ccc(S(=O)(=O)NCc2ccccn2)cc1NC(=O)c1ccccc1 |  | active: 13 µM
O=[N+]([O-])c1ccc(C2=NN(CCO)C(=Nc3ccc(OC(F)(F)F)cc3)SC2)cc1 |  | active: 14.6 µM
CCn1ccnc1CN(C)Cc1cn(-c2cc(C)ccc2C)nc1-c1ccccc1 |  | inconclusive [cytotoxic, single point]
Cc1cccc(N=C2Sc3nc4c(C)c(C)ccc4cc3CN2CCN2CCOCC2)c1 |  | inconclusive [cytotoxic, single point]
Nc1cc2[nH]c(=O)c3ccccc3c2cc1Br |  | inconclusive [cytotoxic, single point]
O=C(CN1CCN(Cc2ccc(F)cc2)CC1)NCCc1ccccc1 |  | inconclusive [cytotoxic, single point]
CN(C)c1ccc(CNC(=O)CCc2ccc(S(=O)(=O)N3CCCCCC3)cc2)cc1 | inactive: -6.2% | 
CCCCCCCCN1C(=O)[C@H](CC(=O)N2CCCC2)C[C@@]2(C(=O)OCC)CCCC=C12 |  | inconclusive [cytotoxic, single point]
OCCC1CN(Cc2cccc3c2OCO3)CCN1C1CCCCC1 (stereo unspecified) | inactive: -1.71% | 
[O-]/C(=C(\C(=S)Nc1ccc(SC(F)F)cc1)[n+]1cccc(CO)c1)c1ccc(Cl)s1 |  | inconclusive [cytotoxic, single point]
Cc1ccc(N2C3=C(C(=O)CC(C)(C)C3)C(c3cn(C)nc3C)C3=C2CC(C)(C)CC3=O)cc1 |  | inconclusive [cytotoxic, single point]
O=C(CN1CCCCC1)NCC(=O)Nc1ccc(F)c(F)c1F | inactive: -1.61% | 
CC(C)CC1C(=O)N(Cc2cn(CCC3OCCCO3)nn2)CCS(=O)(=O)N1Cc1ccc(-c2ccc(Cl)c(Cl)c2)cc1 (stereo unspecified) |  | inconclusive [cytotoxic, single point]
COc1cc(-c2nc3cnccn3c2Nc2ccc(C(C)C)cc2)ccc1O |  | inconclusive [cytotoxic, single point]

SMILES | activity, negative = toxicity | Potency
S=C(Nc1ccc(Cl)cc1)NC1CC2CCCC(C1)N2C1CCCC1 (stereo unspecified) |  | inconclusive [cytotoxic, single point]
COc1ccc([C@H]2[C@H](C(=O)OC(C)(C)C)N3N=Cc4ccccc4C3C23C(=O)c2ccccc2C3=O)c(OC)c1 (stereo partly specified) | inactive: -7.8% | 
O=C(c1cnc2nc3ccccc3n2c1)c1cc(F)ccc1O | inconclusive: -12.7% [cytotoxic] | 
Cn1cccc1C(=O)N1CCN(c2cccc(C(F)(F)F)c2)CC1 | inactive: 10.4% | 
CCC(C(=O)NC1CCCC1)N(C(=O)c1snc(C(N)=O)c1N)c1ccc(OC)c(OC)c1 (stereo unspecified) | inactive: 1.04% | 
COc1ccccc1NC(=O)C(C)OC(=O)C1CC(=O)N(Cc2ccco2)C1 (stereo unspecified) | inactive: -1.16% | 
O=[N+]([O-])c1cccc(C2NCC(c3ccccc3Cl)c3c2[nH]c2ccccc32)c1 (stereo unspecified) |  | active: 25.9 µM
CCCCCCCC[n+]1cccc2c3ccccc3ccc21 |  | active: 8.2 µM
OC(COc1ccc(F)cc1Cl)CN1CCc2ccccc2C1 (stereo unspecified) | inconclusive: -33.7% [cytotoxic] | 
O=C(OCC(=O)N1CCN(S(=O)(=O)c2ccc(Cl)cc2)CC1)C1CCC1 | inactive: 2.49% | 
COc1cc(NC(=O)c2cccs2)c(OC)cc1NC(=O)Nc1ccc(F)cc1 |  | inconclusive [cytotoxic, single point]
O=C(Nc1ccc2c(c1)OCCO2)C(c1ccccc1)n1c(=O)c(-c2cc3ccccc3[nH]2)nc2ccccc21 (stereo unspecified) |  | inconclusive [cytotoxic, partial curve]
Cc1ccc(S(=O)(=O)C(C#N)c2nc3ccccc3nc2N2CC(C)OC(C)C2)cc1C (stereo unspecified) | inactive: -20.3% | 
CCC[C@H]1NC(=O)[C@H](C)N(C)C(=O)C(C)(C)C(=O)C(C)NC(=O)[C@H](Cc2ccc(OC)cc2)N(C)C(=O)[C@H](C(C)C)N(C)C(=O)CNC(=O)[C@H](CC(C)C)N(C)C(=O)CNC(=O)[C@H]([C@@H](C)CC)OC(=O)[C@H]1C (stereo partly specified) |  | active: 1.03 µM
CCC(=O)N1CCC(C)(C(=O)Nc2cc(OC)c(OC)c(OC)c2)C1 (stereo unspecified) | inactive: 26.5% | 
COc1cc(Br)cc(/C=N/NC(=O)Cc2ccc(C(F)(F)F)cc2[N+](=O)[O-])c1O |  | active: 16.4 µM
Clc1ccccc1CN(Cc1ccccc1)c1ncnc2nc[nH]c12 |  | inconclusive [cytotoxic, single point]
COc1ccc(/C=N/Nc2nnc(C)n2N)cc1OC |  | inconclusive [cytotoxic, single point]
Cc1ccccc1NC1=C(Cl)C(=O)OC1OC(=O)c1ccccc1C (stereo unspecified) |  | inconclusive [cytotoxic, partial curve]
Nc1ccccc1C(=O)NNC(=O)C(=O)/C=C(\O)c1ccccc1 |  | inconclusive [cytotoxic, single point]
O=C(CSc1nnc(-c2ccncc2)o1)c1cccc([N+](=O)[O-])c1 |  | inconclusive [cytotoxic, partial curve]
Cc1ccccc1Cn1c(=N)n(CC(=O)c2ccc([N+](=O)[O-])cc2)c2ccccc21 | inactive: -19.1% | 
O=C(c1ccco1)N(CCCN1CCOCC1)c1nc(-c2ccc(F)cc2)cs1 |  | inconclusive [cytotoxic, single point]
